PubChem BioAssay AID1963576 (National Center for Advancing Translational Sciences (NCATS), 2024)
In all, about 46,000 compounds went through this assay and about 60 (0.1%) were called active. About 3% were inconclusive and are not listed. Calls follow the shape of the dose curve; as a rule, active = well fitted inhibition curve with a large enough effect; inconclusive = small, poorly fitted or top-dose-only effect; inactive = no such curve, though single readings can be large or run the other way. The list shows a part of the results.

Experiment: Primary qHTS assay for Inhibitors of ovarian cancer metastasis using an organotypic tumor microenvironment (TME) model. Also: nearly all actives have a fitted effect of over 65% in size.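 As to activity change, negative = inhibition: plate controls were DMSO wells for no effect and tomatine positive control wells for full effect.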
Details: SKOV3ip1-GFP adhesion/invasion on 3D omental model, fluorescence; series mostly up to 45.8 µM; activity change, negative = inhibition: at the top concentration
Procedure, shortened: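 Primary human omental fibroblast/mesothelial 3D culture pre-formed 48 h. SKOV3ip1-GFP cells added with compounds (0.36-46 umol/L), incubated 2 h RT/16 h 37 C, fixed; GFP cells quantified at 488/509 nm.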

Activity change, negative = inhibition, inactive:
COc1ccc(NC(=O)c2c(NCc3cccc(OC)c3)sc3c2CCCC3)cc1 -6.92%
COc1ccccc1NC(=O)CSc1nc(-c2ccccc2F)nc2cc(=O)[nH]n12 2.23%
COc1ccc(CCNc2nc3c(-c4cccc(C)c4)nnn3c3ccccc23)cc1OC -7.51%
CC1=C(c2ccc(Cl)cc2)S(=O)(=O)N=C1N1CCC(C(=O)NCc2ccccc2F)CC1 0.397%
COc1ccc(-c2onc(C)c2C)cc1S(=O)(=O)NCC1CCN(Cc2cccc(F)c2)CC1 2.39%
CC(C)(C)c1ccc(-c2nc(SCC(=O)Nc3ccccc3F)n3[nH]c(=O)cc3n2)cc1 -0.366%
CC(CCc1ccc(O)cc1)NCCc1ccc(O)c(O)c1 (stereo not drawn) -14.9%
CCc1ccc2oc(C(=O)Nc3ccccc3C(=O)OC)cc(=O)c2c1 4.81%
Clc1cccc(-n2ncc3c(NCCCn4ccnc4)ncnc32)c1 3.76%
Cc1cccc(N2CCN(C(=O)Cn3nc(Cc4cccnc4)c4ccccc4c3=O)CC2)c1C -8.35%
COc1ccc(S(=O)(=O)N(CC(=O)Nc2cccnc2)c2ccc(Cl)cc2)cc1 -20.8%
COc1ccc(CNC(=O)COCc2cc(-c3cccs3)on2)cc1 -1.62%
O=C(O)Cn1ccc2cc(S(=O)(=O)N3CCCCCC3)ccc21 4.61%
CCCCn1c(NCc2ccc(N(C)C)cc2)nc2ccccc21 4.59%
Cc1ccccc1CSc1cn(CC(=O)N2CCCCCC2)c2ccccc12 -4.96%
Cc1cccn2c(=O)c(C(=O)NCCc3ccc(S(N)(=O)=O)cc3)c(O)nc12 16.6%
CCCNS(=O)(=O)Nc1ncnc(OCCOc2ncc(Br)cn2)c1-c1ccc(Br)cc1 -13.2%
CC1C(=O)N2CCCc3cc(S(=O)(=O)N4CCC(C(N)=O)CC4)cc1c32 (stereo not drawn) -3.12%
COc1ccccc1NC(=O)c1oc2ccccc2c1NC(=O)C1CCCCC1 -0.917%
CCCSCCCNC(=O)c1ccc2c(c1)sc1nc(-c3ccc(OCC)cc3)cn12 2.46%
Cc1ccc2cc(CN(C(=O)c3cccc(Cl)c3)c3ccccc3)c(=O)[nH]c2c1 0.396%
Cc1ccccc1CSc1nc2ccsc2c(=O)n1CCC(C)C 4.23%
COc1cccc(CNC(=O)c2cnc(N3CCCCC3)c3ccccc23)c1 -12.7%
COc1ccccc1Nc1nn2c(=O)c3ccc(C(=O)NCCC4=CCCCC4)cc3nc2s1 12.8%
COc1ccc(C)cc1NC(=O)C(Cc1ccccc1)NS(=O)(=O)c1cccs1 (stereo not drawn) 2.27%
Cc1cc(C)cc(-n2c(SCC(N)=O)nc3c([nH]c4ccccc43)c2=O)c1 -9.56%
O=C(Nc1ccccc1C(F)(F)F)N1CCC(CN2CCc3ccccc3C2)CC1 4.45%
CCC(=O)N1CCc2cc(Br)cc(S(=O)(=O)CCC(=O)NCc3cccc(OC)c3)c21 3.88%
Cc1ccc2nc(-c3cccc(NC(=O)c4cccc5ccccc45)c3)oc2c1 -8.01%
COc1ccc(Nc2ncnc3c2cnn3-c2ccc(C)cc2)cc1Cl -12.8%
COCCNc1oc(/C=C/c2ccc(F)cc2)nc1C#N 2.17%
CCOC(=O)c1ccc(CN(Cc2ccccc2C)S(=O)(=O)c2ccc(F)c(C)c2)cc1 -4.16%
CCOc1ccc(-n2c(SCC(=O)NC3CCCCC3)nc3c([nH]c4ccccc43)c2=O)cc1 -5.58%

outcome, inactive:
Cc1ccc(-n2c(=O)c3c(c4cc(C)ccc4n3C)n(CC(=O)NCc3ccccc3)c2=O)cc1
CCN1CCc2nc3sc(C(=O)c4ccc(F)cc4)c(N)c3cc2C1
Cc1ccccc1NC(=O)c1c(C)oc2ccc(O)c(CN3CCN(C)CC3)c12
COc1ccc(NC(=O)Cn2c(=O)ccc3cc(S(=O)(=O)N4CCCC4)ccc32)cc1Cl
COc1ccc(CNC(=O)Cn2c(=O)cc(-c3ccccc3)c3c(C)nn(C)c32)cc1
CCOc1ccccc1CNC(=O)c1cccn1-c1nnc(N2CCCC2)s1
O=C(CCOc1ccccc1)N(Cc1cccnc1)c1nc2c(F)cccc2s1
O=C(Nc1ccc(Cl)c(C(F)(F)F)c1)C1CCN(S(=O)(=O)c2cccc3nonc23)CC1
CN1c2ccc(Cl)cc2-c2nc(SCC(=O)NCc3ccccc3)ncc2S1(=O)=O
O=C(NCc1ccccc1F)C1CCN(c2nn3cc(-c4ccc(F)cc4)nc3s2)CC1
O=C(NC1CC(=O)N(c2cccc(F)c2)C1)c1cc2ccccc2o1 (stereo not drawn)
Cc1ccc(Cn2c(C(=O)O)c(CNC3CCCC3)c3ccc(C)cc32)cc1
Cc1cccc(Cn2cc(S(=O)(=O)c3cccc(C)c3)c(=O)c3cc(F)c(N4CCOCC4)cc32)c1
Cc1ccc(CNC(=O)CCCn2c(=O)[nH]c3ccc(Br)cc3c2=O)cc1
Cc1ccc(-n2c(=O)c3c(cnn3C)n(CC(=O)Nc3ccccc3C)c2=O)cc1
